Laboratory results: the supplement of paper PMC12217912
The other results are listed elsewhere or left out. The full chains were built here from the parent and the listed change. Inactive controls read about 0.05.

B1: TEV protease; numbered along this chain (parent)
chain: MGESLFKGPRDYNPISSSICHLTNESDGHTTSLYGIGFGPFIITNKHLFRRNNGTLVVQSLHGVFKVKDTTTLQQHLVDGRDMIIIRMPKDFPPFPQKLKFREPQREERICLVTTNFQTKSMSSMVSDTSCTFPSGDGIFWKHWIQTKDGQCGSPLVSTRDGFIVGIHSASNFTNTNNYFTSVPKNFMELLTNQEAQQWVSGWRLNADSVLWGGHKVFMVKPEEPFQPVKEATQL

Variants of: B1
Test: raw area under fraction-flipped curve 0-4 h after induction (AUC4h, not background-subtracted), DNA-recorder readout of cleavage of the substrate (dimensionless); higher = more cleavage of the substrate by the protease variant
Conditions: temperature: 34 °C; time window: 0-4 h after rhamnose induction
Experimental: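 In vivo DNA recorder in E. coli TOP10(DE3) ΔrhaA at 34 °C. Each TEVp single-site mutant (parent TEVp 0) is paired with a single-site variant of the 7-mer TEVs (canonical ENLYFQ|S). The substrate sits between flexible linkers in a Bxb1-sfGFP-TEVs-SsrA fusion, so cleavage stabilises Bxb1 and speeds flipping of a recombination array, read by NGS. The value is the raw area under the fraction-flipped curve over 0-4 h after rhamnose induction (AUC4h), with ≥20 reads per time point. It is not background-subtracted; inactive controls average about 0.047.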
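Note: Bxb1 expression induced with 0.2% (w/v) L-rhamnose at OD600 near 0.5, cultures sampled hourly, flipped fraction per protease–substrate barcode pair counted by paired-end Illumina sequencing.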

For MGESLFKGPRDYNPISSSICHLTNESDGHTTSLYGIGFGPFIITNKHLFRRNNGTLVVQSLHGVFKVKDTTTLQQHLVDGRDMIIIRMPKDFPPFPQKLKFREPQREERICLVTTNFQTKSMSSMVSDTSCTNPSGDGIFWKHWIQTKDGQCGSPLVSTRDGFIVGIHSASNFTNTNNYFTSVPKNFMELLTNQEAQQWVSGWRLNADSVLWGGHKVFMVKPEEPFQPVKEATQL [F133N], the “area with substrate ENLYFQA” value was 0.0951, the “area with substrate ENLYFQD” value was 0.0638 and the “area with substrate ENLYFQF” value was 0.123. The “area with substrate ENLYFQG” value was 0.0758, the “area with substrate ENLYFQH” value was 0.0582 and the “area with substrate ENLYFQI” value was 0.0621. For the same variant, the “area with substrate ENLYFQK” value was 0.0757, the “area with substrate ENLYFQM” value was 0.0824 and the “area with substrate ENLYFQN” value was 0.07. For the same variant, the “area with substrate ENLYFQQ” value was 0.0742, the “area with substrate ENLYFQR” value was 0.0747 and the “area with substrate ENLYFQS” value was 0.104. The “area with substrate ENLYFQT” value was 0.0664.

For MGESLFKGPRDYNPISSSICHLTNESDGHTTSLYGIGFGPFIITNKHLFRRNNGTLVVQSLHGVFKVKDTTTLQQHLVDGRDMIIIRMPKDFPPFPQKLKFREPQREERICLVTTNFQTKSMSSMVSDTSCTEPSGDGIFWKHWIQTKDGQCGSPLVSTRDGFIVGIHSASNFTNTNNYFTSVPKNFMELLTNQEAQQWVSGWRLNADSVLWGGHKVFMVKPEEPFQPVKEATQL [F133E], the “area with substrate ENLYFQA” value was 0.134, the “area with substrate ENLYFQC” value was 0.106 and the “area with substrate ENLYFQD” value was 0.0917. The “area with substrate ENLYFQG” value was 0.0884, the “area with substrate ENLYFQI” value was 0.0582 and the “area with substrate ENLYFQK” value was 0.0623. The “area with substrate ENLYFQL” value was 0.0874, the “area with substrate ENLYFQM” value was 0.124 and the “area with substrate ENLYFQN” value was 0.0757. The “area with substrate ENLYFQR” value was 0.0532, the “area with substrate ENLYFQS” value was 0.108 and the “area with substrate ENLYFQT” value was 0.066. For the same variant, the “area with substrate ENLYFQW” value was 0.0652 and the “area with substrate ENLYFQY” value was 0.0902.

With MGESLFKGPRDYNPISSSICHLTNESDGHTTSLYGIGFGPFIITNKHLFRRNNGTLVVQSLHGVFKVKDTTTLQQHLVDGRDMIIIRMPKDFPPFPQKLKFREPQREERICLVTTNFQTKSMSSMVSDWSCTFPSGDGIFWKHWIQTKDGQCGSPLVSTRDGFIVGIHSASNFTNTNNYFTSVPKNFMELLTNQEAQQWVSGWRLNADSVLWGGHKVFMVKPEEPFQPVKEATQL [T129W] the “area with substrate ENLYFQA” value was 0.0864, the “area with substrate ENLYFQC” value was 0.0971 and the “area with substrate ENLYFQF” value was 0.0792. The “area with substrate ENLYFQG” value was 0.0703, the “area with substrate ENLYFQH” value was 0.0547 and the “area with substrate ENLYFQI” value was 0.0468. The “area with substrate ENLYFQK” value was 0.0671, the “area with substrate ENLYFQL” value was 0.0659 and the “area with substrate ENLYFQM” value was 0.0932. The “area with substrate ENLYFQN” value was 0.0615, the “area with substrate ENLYFQP” value was 0.0507 and the “area with substrate ENLYFQR” value was 0.06. The “area with substrate ENLYFQS” value was 0.0912, the “area with substrate ENLYFQT” value was 0.0602 and the “area with substrate ENLYFQV” value was 0.0668. For the same variant, the “area with substrate ENLYFQW” value was 0.0645 and the “area with substrate ENLYFQY” value was 0.0718.

With MGESLFKGPRDYNPISSSICHLTNESDGHTTSLYGIGFGPFIITNKHLFRRNNGTLVVQSLHGVFKVKDTTTLQQHLVDGRDMIIIRMPKDFPPFPQKLKFREPQREERICLVTTNFQTKSMSSMVSDISCTFPSGDGIFWKHWIQTKDGQCGSPLVSTRDGFIVGIHSASNFTNTNNYFTSVPKNFMELLTNQEAQQWVSGWRLNADSVLWGGHKVFMVKPEEPFQPVKEATQL [T129I] the “area with substrate ENLYFQA” value was 0.0975, the “area with substrate ENLYFQC” value was 0.0751 and the “area with substrate ENLYFQD” value was 0.0688. The “area with substrate ENLYFQG” value was 0.0796, the “area with substrate ENLYFQI” value was 0.0337 and the “area with substrate ENLYFQK” value was 0.062. For the same variant, the “area with substrate ENLYFQL” value was 0.0536, the “area with substrate ENLYFQM” value was 0.0964 and the “area with substrate ENLYFQN” value was 0.0853. The “area with substrate ENLYFQQ” value was 0.065, the “area with substrate ENLYFQR” value was 0.0587 and the “area with substrate ENLYFQS” value was 0.0815. For the same variant, the “area with substrate ENLYFQT” value was 0.0496, the “area with substrate ENLYFQV” value was 0.0588 and the “area with substrate ENLYFQW” value was 0.0657. The “area with substrate ENLYFQY” value was 0.0664.

In the case of MGESLFKGPRDYNPISSSICHLTNESDGHTTSLYGIGFGPFIITNKHLFRRNNGTLVVQSLHGVFKVKDTTTLQQHLVDGRDMIIIRMPKDFPPFPQKLKFREPQREERICLVTTNFTTKSMSSMVSDTSCTFPSGDGIFWKHWIQTKDGQCGSPLVSTRDGFIVGIHSASNFTNTNNYFTSVPKNFMELLTNQEAQQWVSGWRLNADSVLWGGHKVFMVKPEEPFQPVKEATQL [Q118T], the “area with substrate ENLYFQA” value is reported as 0.106, the “area with substrate ENLYFQC” value is reported as 0.134 and the “area with substrate ENLYFQD” value is reported as 0.0591. For the same variant, the “area with substrate ENLYFQH” value was 0.0699, the “area with substrate ENLYFQI” value was 0.0534 and the “area with substrate ENLYFQL” value was 0.0549. The “area with substrate ENLYFQQ” value was 0.0599, the “area with substrate ENLYFQR” value was 0.059 and the “area with substrate ENLYFQS” value was 0.102. For the same variant, the “area with substrate ENLYFQT” value was 0.0593 and the “area with substrate ENLYFQY” value was 0.107.

For MGESLFKGPRDYNPISSSICHLTNESDGHTTSLYGIGFGPFIITNKHLFRRNNGTLVVQSLHGVFKVKDTTTLQQHLVDGRDMIIIRMPKDFPPFPQKLKFREPQREERICLVTTNFQTKSMSWMVSDTSCTFPSGDGIFWKHWIQTKDGQCGSPLVSTRDGFIVGIHSASNFTNTNNYFTSVPKNFMELLTNQEAQQWVSGWRLNADSVLWGGHKVFMVKPEEPFQPVKEATQL [S124W], the “area with substrate ENLYFQA” value was 0.0865, the “area with substrate ENLYFQF” value was 0.0867 and the “area with substrate ENLYFQG” value was 0.0992. The “area with substrate ENLYFQI” value was 0.0572, the “area with substrate ENLYFQK” value was 0.0598 and the “area with substrate ENLYFQL” value was 0.0758. For the same variant, the “area with substrate ENLYFQM” value was 0.118, the “area with substrate ENLYFQN” value was 0.0766 and the “area with substrate ENLYFQP” value was 0.0533. The “area with substrate ENLYFQR” value was 0.0883, the “area with substrate ENLYFQS” value was 0.105 and the “area with substrate ENLYFQT” value was 0.0615. The “area with substrate ENLYFQV” value was 0.0502 and the “area with substrate ENLYFQY” value was 0.0713.

In the case of MGESLFKGPRDYNPISSSICHLTNESDGHTTSLYGIGFGPFIITNKHLFRRNNGTLVVQSLHGVFKVKDTTTLQQHLVDGRDMIIIRMPKDFPPFPQKLKFREPQREERICLVTTNFQTKSMASMVSDTSCTFPSGDGIFWKHWIQTKDGQCGSPLVSTRDGFIVGIHSASNFTNTNNYFTSVPKNFMELLTNQEAQQWVSGWRLNADSVLWGGHKVFMVKPEEPFQPVKEATQL [S123A], the “area with substrate ENLYFQA” value is reported as 0.0984, the “area with substrate ENLYFQC” value is reported as 0.151 and the “area with substrate ENLYFQD” value is reported as 0.0786. The “area with substrate ENLYFQI” value was 0.0641, the “area with substrate ENLYFQK” value was 0.0529 and the “area with substrate ENLYFQL” value was 0.0655. For the same variant, the “area with substrate ENLYFQP” value was 0.0499, the “area with substrate ENLYFQQ” value was 0.0887 and the “area with substrate ENLYFQR” value was 0.0598. The “area with substrate ENLYFQS” value was 0.105, the “area with substrate ENLYFQT” value was 0.0739 and the “area with substrate ENLYFQV” value was 0.101. For the same variant, the “area with substrate ENLYFQY” value was 0.0806.

With MGESLFKGPRDYNPISSSICHLTNESDGHTTSLYGIGFGPFIITNKHLFRRNNGTLVVQSLHGVFKVKDTTTLQQHLVDGRDMIIIRMPKDFPPFPQKLKFREPQREERICLVTTNFQTKSMKSMVSDTSCTFPSGDGIFWKHWIQTKDGQCGSPLVSTRDGFIVGIHSASNFTNTNNYFTSVPKNFMELLTNQEAQQWVSGWRLNADSVLWGGHKVFMVKPEEPFQPVKEATQL [S123K] the “area with substrate ENLYFQA” value was 0.0691, the “area with substrate ENLYFQC” value was 0.145 and the “area with substrate ENLYFQF” value was 0.062. For the same variant, the “area with substrate ENLYFQG” value was 0.111, the “area with substrate ENLYFQH” value was 0.0828 and the “area with substrate ENLYFQI” value was 0.0632. For the same variant, the “area with substrate ENLYFQK” value was 0.0613, the “area with substrate ENLYFQM” value was 0.114 and the “area with substrate ENLYFQP” value was 0.0602. The “area with substrate ENLYFQR” value was 0.0518, the “area with substrate ENLYFQS” value was 0.115 and the “area with substrate ENLYFQT” value was 0.0716. For the same variant, the “area with substrate ENLYFQV” value was 0.0811, the “area with substrate ENLYFQW” value was 0.0425 and the “area with substrate ENLYFQY” value was 0.0857.

With MGESLFKGPRDYNPISSSICHLTNESDGHTTSLYGIGFGPFIITNKHLFRRNNGTLVVQSLHGVFKVKDTTTLQQHLVDGRDMIIIRMPKDFPPFPQKLKFREPQREERICLVTTNHQTKSMSSMVSDTSCTFPSGDGIFWKHWIQTKDGQCGSPLVSTRDGFIVGIHSASNFTNTNNYFTSVPKNFMELLTNQEAQQWVSGWRLNADSVLWGGHKVFMVKPEEPFQPVKEATQL [F117H] the “area with substrate ENLYFQA” value was 0.0985, the “area with substrate ENLYFQC” value was 0.117 and the “area with substrate ENLYFQG” value was 0.107. The “area with substrate ENLYFQH” value was 0.078, the “area with substrate ENLYFQI” value was 0.0628 and the “area with substrate ENLYFQK” value was 0.0564. For the same variant, the “area with substrate ENLYFQL” value was 0.0657, the “area with substrate ENLYFQM” value was 0.086 and the “area with substrate ENLYFQN” value was 0.076. For the same variant, the “area with substrate ENLYFQR” value was 0.0573, the “area with substrate ENLYFQS” value was 0.107 and the “area with substrate ENLYFQT” value was 0.0596. The “area with substrate ENLYFQV” value was 0.062 and the “area with substrate ENLYFQW” value was 0.045.
